Measured values published in patent US20200048345A1 (INNATE PHARMA, published 2020).

Experiments:
human FcRn = target: T1, human FcRn (human, UniProt P55899 fragment; P61769 fragment, limits assumed); assay: SPR, recombinant human FcRn immobilized on chip; SCK/Two state reaction
T1 construct: also called recombinant FcRn proteins

[1] = target: T2, Human NKp46 recombinant protein (human, UniProt O76036 22-258, limits assumed); assay: SPR (Biacore T100), captured on Protein-A chip, recombinant human NKp46 6.25-400 nM, 1:1 kinetic model
T2 construct: Soluble analyte in SPR; also called recombinant human NKp46 proteins
T2 sequence (looked up): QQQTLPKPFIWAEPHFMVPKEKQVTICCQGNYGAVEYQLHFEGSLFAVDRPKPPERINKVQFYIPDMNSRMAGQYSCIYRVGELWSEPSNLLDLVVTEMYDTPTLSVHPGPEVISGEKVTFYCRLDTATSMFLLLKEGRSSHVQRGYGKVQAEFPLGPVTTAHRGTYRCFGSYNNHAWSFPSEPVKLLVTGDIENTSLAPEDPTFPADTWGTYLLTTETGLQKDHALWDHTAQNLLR
Protocol: SPR measurements were performed on a Biacore T100 apparatus (Biacore GE Healthcare) at 25° C. In all Biacore experiments HBS-EP+ (Biacore GE Healthcare) and NaOH 10 mM served as running buffer and regeneration buffer respectively. Sensorgrams were analyzed with Biacore T100 Evaluation software. Protein-A was purchased from (GE Healthcare). Human NKp46 recombinant proteins were cloned, produced and purified at Innate Pharma.
Protein-A proteins were immobilized covalently to carboxyl groups in the dextran layer on a Sensor Chip CMS. The chip surface was activated with EDC/NHS (N-ethyl-N′-(3-dimethylaminopropyl) carbodiimidehydrochloride and N-hydroxysuccinimide (Biacore GE Healthcare)). Protein-A was diluted to 10 μg/ml in coupling buffer (10 mM acetate, pH 5.6) and injected until the appropriate immobilization level was reached (i.e. 2000 RU). Deactivation of the remaining activated groups was performed using 100 mM ethanolamine pH 8 (Biacore GE Healthcare).
Monovalent affinity study was conducted following a regular Capture-Kinetic protocol recommended by the manufacturer (Biacore GE Healthcare kinetic wizard). Seven serial dilutions of human NKp46 recombinant proteins, ranging from 6.25 to 400 nM were sequentially injected over the captured Bi-Specific antibodies and allowed to dissociate for 10 min before regeneration. The entire sensorgram sets were fitted using the 1:1 kinetic binding model.

human FcRn, sequence (P55899 24-297 limits assumed, chain 1 of 2): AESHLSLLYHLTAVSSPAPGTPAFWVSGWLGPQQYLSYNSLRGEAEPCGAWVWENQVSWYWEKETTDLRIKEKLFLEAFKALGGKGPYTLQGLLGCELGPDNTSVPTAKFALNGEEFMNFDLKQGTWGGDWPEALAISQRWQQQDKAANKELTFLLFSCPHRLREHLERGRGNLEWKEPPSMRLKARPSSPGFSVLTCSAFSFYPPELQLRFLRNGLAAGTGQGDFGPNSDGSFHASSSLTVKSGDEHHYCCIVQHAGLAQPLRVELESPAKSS
human FcRn, sequence (P61769 21-119 limits assumed, chain 2 of 2, further chain): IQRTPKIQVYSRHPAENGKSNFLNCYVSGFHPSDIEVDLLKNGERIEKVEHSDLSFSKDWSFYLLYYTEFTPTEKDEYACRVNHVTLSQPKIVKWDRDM

B1: CD19-F14-NKp46-3 (bispecific antibody, human IgG1, kappa)
chain 1: QVQLQQSGAELVRPGSSVKISCKASGYAFSSYWMNWVKQRPGQGLEWIGQIWPGDGDTNYNGKFKGKATLTADESSSTAYMQLSSLASEDSAVYFCARRETTTVGRYYYAMDYWGQGTTVTVSSASTKGPSVFPLAPSSKSTSGGTAALGCLVKDYFPEPVTVSWNSGALTSGVHTFPAVLQSSGLYSLSSVVTVPSSSLGTQTYICNVNHKPSNTKVDKRV[human IgG1 Fc with N297S (EU numbers) cut from this listing]TGSEVQLQQSGPELVKPGASVKISCKTSGYTFTEYTMHWVKQSHGKSLEWIGGISPNIGGTSYNQKFKGKATLTVDKSSSTAYMELRSLTSEDSAVYYCARRGGSFDYWGQGTTLTVSSVEGGSGGSGGSGGSGGVDDIVMTQSPATLSVTPGDRVSLSCRASQSISDYLHWYQQKSHESPRLLIKYASQSISGIPSRFSGSGSGSDFTLSINSVEPEDVGVYYCQNGHSFPLTFGAGTKLELK
chain 2: IQLTQSPASLAVSLGQRATISCKASQSVDYDGDSYLNWYQQIPGQPPKLLIYDASNLVSGIPPRFSGSGSGTDFTLNIHPVEKVDAATYHCQQSTEDPWTFGGGTKLEIKRTVAAPSVFIFPPSDEQLKSGTASVVCLLNNFYPREAKVQWKVDNALQSGNSQESVTEQDSKDSTYSLSSTLTLSKADYEKHKVYACEVTHQGLSSPVTKSFNRGE[human IgG1 Fc with N297S (EU numbers) cut from this listing]
notes: copies: 1 + 1
Human FcRn
  Kd: 14 nM
[1]
  Kd: 62 nM
  koff: 0.00546 s⁻¹
  kon: 88300 M⁻¹ s⁻¹
